# Laboratory results from PubChem BioAssay AID1030 (National Center for Advancing Translational Sciences (NCATS), 2008).
# About 16,000 (7.3%) of roughly 220,000 compounds were called active. The inconclusive results got no clear call from the source; some entries with a clear call stand among them for comparison. Calls follow the shape of the dose curve; as a rule, active = well fitted inhibition curve with a large enough effect (not every such curve was filed as active); inconclusive = small, poorly fitted or top-dose-only effect, or another doubt; inactive = no such curve, though single readings can be large or run the other way. No potency is given beside an inconclusive call; the fits are too rough.
# Target: Aldehyde dehydrogenase 1A1 (Homo sapiens) (UniProt P00352)
# Test: qHTS Assay for Inhibitors of Aldehyde Dehydrogenase 1 (ALDH1A1);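 as to activity, negative = inhibition: plate controls were no enzyme wells and a reference inhibitor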
# Conditions: Purified ALDH1A1, NADH fluorescence, propionaldehyde substrate; series mostly up to 75.3 µM
# Potency is read from the fitted curve at half-maximal effect; tags tell the direction and shape of the fitted curve.
# Chain of UniProt P00352 (P00352 whole entry, looked up): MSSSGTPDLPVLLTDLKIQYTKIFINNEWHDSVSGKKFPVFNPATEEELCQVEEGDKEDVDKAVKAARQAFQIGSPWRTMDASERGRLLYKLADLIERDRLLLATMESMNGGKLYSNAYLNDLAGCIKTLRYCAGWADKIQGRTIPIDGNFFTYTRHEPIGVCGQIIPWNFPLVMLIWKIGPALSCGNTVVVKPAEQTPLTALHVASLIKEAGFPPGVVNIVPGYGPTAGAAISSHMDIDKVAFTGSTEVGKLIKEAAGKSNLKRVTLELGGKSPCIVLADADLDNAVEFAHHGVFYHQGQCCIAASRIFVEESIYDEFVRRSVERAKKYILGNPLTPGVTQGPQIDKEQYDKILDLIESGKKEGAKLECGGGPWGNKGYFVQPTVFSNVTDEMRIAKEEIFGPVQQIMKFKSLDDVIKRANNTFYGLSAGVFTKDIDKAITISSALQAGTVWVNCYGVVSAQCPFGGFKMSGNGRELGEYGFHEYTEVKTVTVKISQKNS
SMILES,Potency,"activity, negative = inhibition"
CCc1cc(=O)oc2cc(OCC(=O)O)c(Cl)cc12,"inconclusive [inhibitor, partial curve]",–
CC(C)[C@H](CO)Nc1nc(Nc2cc(N)cc(Cl)c2)c2ncn(C(C)C)c2n1,"inconclusive [inhibitor, single point]",–
O=C1OCCN1C(=O)[C@H]1[C@H](c2ccccc2)C(c2ccccc2)=NN1c1ccccc1,"inconclusive [inhibitor, single point]",–
O=C(Nc1ccc(Cl)cc1)N1CCN(c2ccc3nnc(-c4ccc(F)cc4)n3n2)CC1,active: 28.2 µM,–
CN(C)/N=C/c1ccc(N2CCOCC2)cc1,"inconclusive [inhibitor, single point]",–
Cc1ccc(C(=O)Nc2ccccc2N2CCN(C(=O)C(C)C)CC2)cc1C,"inconclusive [inhibitor, partial curve]",–
Cc1cccc2sc(NC(=O)C3CCCO3)nc12 (configuration not stated),inactive,–
CCCc1nc2oc3c(NCCN(C)C)ncnc3c2c2c1CCCC2,"inconclusive [inhibitor, single point]",–
CC#CC(=O)N1CCC(CCc2ccccc2)(C(=O)OCC)CC1,inactive,–
COc1cccc(Cn2cc(N)cn2)c1,inactive,–
CCN(CC)c1ccc(/C=N/NC(=O)c2cccc(S(=O)(=O)Nc3ccccc3OC)c2)cc1,active: 10 µM,–
Cc1ccc(S(=O)(=O)CCC(=O)OCc2ccc(Cl)cc2)cc1,"inconclusive [inhibitor, single point]",–
CCCCNC(=S)Nc1ccc(-c2nc3ccc(C)cc3s2)cc1,"inconclusive [inhibitor, partial curve]",–
Cc1nnc(SCC(=O)N/N=C/c2cc(Cl)c(O)c(Cl)c2)s1,"inconclusive [inhibitor, single point]",–
CC1=Nc2ccccc2N=C(NC(=O)CSC(=S)N2CCN(C)CC2)C1c1ccccc1 (configuration not stated),"inconclusive [inhibitor, partial curve]",–
O=C(/C=C/c1ccc(-c2ccccc2[N+](=O)[O-])o1)c1ccco1,"inconclusive [inhibitor, single point]",–
CSc1nsc2nc(=O)c(/C=C3\C(C)=Nc4ccc(C)cc43)c(N)n12,"inconclusive [inhibitor, single point]",–
CCCCn1c(=O)c(CCC(=O)O)nc2ccccc21,"inconclusive [inhibitor, single point]",–
Cc1cc(C)nc(NC(=O)NS(=O)(=O)N2CCCCCC2)n1,inactive,–
COc1ccc(CCNC(=O)C2CCN(S(=O)(=O)c3cccs3)CC2)cc1OC,"inconclusive [inhibitor, partial curve]",–
COc1ccc(OC)c(NC(=O)c2cnc(Nc3ccccc3OC)c3ccccc23)c1,"inconclusive [inhibitor, single point]",–
Cc1ccc(/C=C/C(=O)c2cc(Br)ccc2OC(=O)c2ccco2)cc1,"inconclusive [inhibitor, single point]",–
O=C(O)CCC(=O)c1ccc2sc3ccccc3c2c1,–,inactive: -6.13% [at 13.5 µM]
CCOc1ccc(-n2cc(C(=O)Nc3ccc(Cl)cn3)c3cc(OC)c(OC)cc3c2=O)cc1,"inconclusive [inhibitor, single point]",–

SMILES,Potency,"activity, negative = inhibition"
Cc1ccc(C)c(C(=O)OCC(=O)Nc2cccc(S(=O)(=O)NC3=NCCCCC3)c2)c1,inactive,–
COc1cccc(-c2nccc(-n3ccnc3)n2)c1,inactive,–
Cc1cc(C(=O)OCC(=O)NCc2ccc3c(c2)OCO3)c2ccccc2n1,inactive,–
COc1ccc(CNc2cc(-c3ccccc3CN(C)C)ncn2)c(OC)c1,inactive,–
Cc1ccc(N=C2NC(=O)/C(=C/C=C/c3ccco3)S2)cc1C,active: 7.94 µM,–
CCN(Cc1ccccc1)C(c1cc2cc(C)cc(C)c2[nH]c1=O)c1nnnn1CCOC (configuration not stated),"inconclusive [inhibitor, single point]",–
COc1cccc(CN2C(=O)C3(C(C#N)=C(N)OC4=C3C(=O)CCC4)c3ccccc32)c1 (configuration not stated),"inconclusive [inhibitor, single point]",–
COc1ccc(OC)c(Cc2nnc(CCC(=O)N3CCCCC3c3nccs3)o2)c1 (configuration not stated),"inconclusive [inhibitor, single point]",–
O=C(CSc1ccc2nnc(-c3ccc(Cl)cc3)n2n1)N1CCc2ccccc21,"inconclusive [inhibitor, partial curve]",–
CC(C)c1ccc2oc(-c3ccc(N)cc3)nc2c1,"inconclusive [inhibitor, partial curve]",–
O=C(CCCn1c(SCc2cccc([N+](=O)[O-])c2)nc2ccccc2c1=O)NCC1CCCO1 (configuration not stated),"inconclusive [inhibitor, partial curve]",–
Nc1c(Nc2ccccc2)c2ccccc2oc1=O,inactive,–
CCN1C(=O)C2(C(C#N)=C(N)Oc3c2c(C)nn3-c2ccccc2)c2ccccc21 (configuration not stated),"inconclusive [inhibitor, partial curve]",–
COc1cccc(C(=O)/C=C/Nc2ccc(S(=O)(=O)Nc3cnc4ccccc4n3)cc2)c1,"inconclusive [inhibitor, partial curve]",–
S=C=Nc1cccc(NC(=S)NCCCCNC(=S)Nc2cccc(N=C=S)c2)c1,"inconclusive [inhibitor, single point]",–
CCOc1ccc(-c2nc(CN(Cc3ccccc3)C[C@@H]3CCC(=O)N3)c(C)o2)cc1,"inconclusive [inhibitor, single point]",–
COC(=O)C1=C(C(=O)OC)[C@@H]2N(C)c3ccccc3[C@@]23C[C@@H](CO)N(C(=O)c2cc(C)oc2C)C3=N1,–,inactive: 6.81% [at 13.5 µM]
Cc1ccc(CN2C(=O)CCSc3ccc(Cl)cc32)cc1,"inconclusive [inhibitor, single point]",–
O=C1Nc2ccc(S(=O)(=O)N3CCCC3)c3ccc(S(=O)(=O)N4CCCC4)c1c23,"inconclusive [inhibitor, single point]",–
Cn1cc(C=O)c2ccccc21,active: 2.82 µM,–
O=c1c2[nH]c3ccc(F)cc3c2nc2n1CCCS2,"inconclusive [inhibitor, single point]",–
O=C(OCc1nnc(-c2ccccc2)o1)c1ccc(CO)cc1,inactive,–
Oc1ccccc1C1=Nc2ncnn2C(c2ccc(F)cc2)C1 (configuration not stated),"inconclusive [inhibitor, single point]",–
S=c1nc(C2CCCCC2)[nH]c2ccccc12,inactive,–

SMILES,Potency,"activity, negative = inhibition"
CC(C)OC(=O)c1ccc(N2C(=O)C3CC=CCC3C2=O)cc1 (configuration not stated),"inconclusive [inhibitor, partial curve]",–
O=C(COc1ccc(Cl)cc1)NCc1nnc(SCC(=O)NC2CCCCC2)o1,inactive,–
O=c1c2c3c(sc2nc2n1CCCS2)CCCC3,"inconclusive [inhibitor, partial curve]",–
CCOC(=O)c1cc(-c2csc(N/N=C/c3ccccc3Cl)n2)on1,"inconclusive [inhibitor, single point]",–
O=C(c1ccco1)N1CCC2(CC1)CN(c1cccc(-c3ccccc3)c1)C2,"inconclusive [inhibitor, partial curve]",–
O=C(c1cn(-c2ccccc2)nc1-c1cc2ccccc2oc1=O)N1CCOCC1,"inconclusive [inhibitor, single point]",–
COc1ccc(Br)cc1C(=O)N/N=C/c1ccc2c(c1)n(C)c(=O)n2C,"inconclusive [inhibitor, single point]",–
O=C(NC(Cc1c[nH]c2ccccc12)C(=O)N/N=C/c1cccc2ccccc12)c1cccs1 (configuration not stated),inactive,–
COc1ccc2nc(N)sc2c1,inactive,–
CCC(c1nnnn1C(C)(C)CC)N(CCCO)Cc1cc2cccc(C)c2[nH]c1=O (configuration not stated),"inconclusive [inhibitor, single point]",–
Cc1nn(C)c(Cl)c1CN1CCN(CC(C)C)C(CCO)C1 (configuration not stated),"inconclusive [inhibitor, single point]",–
Cc1ccc(NC(=O)CN(C)C(=O)COc2cccc3cccnc23)cc1,inactive,–
Cc1cccc(NC(=O)CSc2nnc(NC(=O)CN3CCCCC3)s2)c1,inactive,–
CC[C@H]1[C@@H]2C=C[C@@H]3[C@H]4C/C=C\C(=O)NCCC[C@@H]5NC(=O)C(=C5O)C(=O)CC[C@@H]4C[C@@H]3[C@H]2C[C@H]1C,inactive,–
NNc1ncnc2c1cnn2-c1ccccc1,active: 17.8 µM,–
Cc1cc(NC(=O)NC2(C(F)(F)F)Oc3ccc(Cl)cc3O2)no1 (configuration not stated),inactive,–
C=CCn1c(Cc2nc3ccccc3[nH]2)n[nH]c1=S,"inconclusive [inhibitor, single point]",–
Cc1ccc2cc(C#N)c(NCCCNC(=O)C3CCCO3)nc2c1 (configuration not stated),"inconclusive [inhibitor, partial curve]",–
Cn1c(SCc2cccc(C(F)(F)F)c2)nnc1-c1ccco1,inactive,–
C(=N\Nc1ccc2nncn2n1)/c1ccccn1,"inconclusive [inhibitor, single point]",–
COc1ccc(-c2nc(C#N)c(N3CCC(C(N)=O)CC3)o2)cc1OC,"inconclusive [inhibitor, partial curve]",–
Cc1ccccc1N=C/C=C1\N(C)c2ccccc2C1(C)C,inactive,–
Cc1cccc2c1N(CC(=O)OC(C)C)C(=O)C2=O,active: 0.02 µM,–
CCCOc1ccc(N2C(=O)CC(N3CCN(c4ccccc4OC)CC3)C2=O)cc1 (configuration not stated),"inconclusive [inhibitor, single point]",–
